Assay results as given in the supplement of paper PMC3334620.
The full ranking holds about 33,000 sequences; the median of “E-score (-0.5 to 0.5)” is about -0.016, and the highest 2% start at about 0.31. The list shows a part of the results.

Molecular target: Cst6 (UniProt P40535)
Test: PBM E-score (8-mer binding enrichment) (E-score (-0.5 to 0.5)); higher = stronger / more preferred TF binding; most listed sequences are background and not binding sites
Settings: protein concentration: 200 nM; construct: GST-DNA-binding domain
Method in brief: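 The E-score, a modified Wilcoxon-Mann-Whitney statistic, was computed by the Universal PBM Analysis Suite for every ungapped eight-base word pooled with its reverse complement. Scans behind it were normalised with masliner after bound GST-tagged yeast transcription factors were detected with fluorescent anti-GST. The proteins, at about 100-200 nM, had been applied to universal all-10-mer Agilent arrays made double-stranded by primer extension.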

Row | Sequence | PBM E-score
1 | AGGTGAGC | -0.142
2 | ACCCCCTG | -0.404
3 | GCCTGACC | -0.213
4 | AGTGGTGC | -0.141
5 | ACTCACGG | 0.0673
6 | ACCGTGGA | -0.184
7 | CAGTAAGA | 0.0612
8 | CCGACGAA | 0.0288
9 | GCCTAGGC | -0.192
10 | ACGTCTAG | 0.0566
11 | CCTGGCTC | -0.19
12 | AGTGACCG | -0.0724
13 | CGCGTGGA | -0.139
14 | CGTGGCAG | 0.00302
15 | GTTAGGGA | -0.223
16 | ATAGTGGG | -0.238
17 | ACCACGCG | -0.00898
18 | GTCAACCA | 0.0733
19 | ATGACGAC | 0.431
20 | ACTAAACA | 0.242
21 | CGTCATTA | 0.477
22 | AACCAACA | 0.0484
23 | CGTTTATC | 0.154
24 | ATCATCCC | 0.154
25 | TGACTCCA | -0.148

Row | Sequence | PBM E-score
26 | TTAATAAA | 0.307
27 | GAATTGGA | 0.0141
28 | CGTTGCCC | -0.16
29 | CCCCTAAG | -0.242
30 | CACGTAGC | -0.0159
31 | CATGAACC | 0.08
32 | ATACAAAC | 0.228
33 | GTACTTAA | -0.129
34 | CACAGGTC | -0.217
35 | ATAGGCCG | -0.324
36 | CACGTTCG | -0.149
37 | CTAGGAGA | -0.148
38 | AACCGCGT | 0.153
39 | CAACGTCA | 0.471
40 | TCCAAAAA | 0.0923
41 | GAGACCGA | -0.128
42 | AGCCTGCC | -0.108
43 | GGCGCCGA | 0.234
44 | AACGAACA | 0.194
45 | AAGACTTC | -0.117
46 | CCGATACG | -0.246
47 | ACTCCTGG | -0.311
48 | CCGTCAGG | -0.107
49 | GTAATGGA | 0.353
50 | GACCATGC | -0.00363

Row | Sequence | PBM E-score
51 | CCAGTAAA | -0.0936
52 | AGTATTCA | 0.114
53 | TCATCCCA | 0.0516
54 | GACTCTAA | -0.0163
55 | ACCGAGTG | -0.15
56 | TCATAAGA | 0.162
57 | TACATCCA | 0.153
58 | CGCGGTAC | -0.00078
59 | AGGCTGCG | -0.225
60 | CCTGGGCC | -0.205
61 | TAATTTCA | 0.26
62 | ACCAAAAG | 0.161
63 | AATGCAGC | -0.29
64 | GGGGCATA | -0.171
65 | CCGGATAG | -0.0256
66 | ACTTCCCA | -0.0226
67 | GCATCAAC | 0.114
68 | AAAATTTA | 0.149
69 | CCTGTAAG | -0.117
70 | CGAAAAAG | 0.228
71 | ACGCCCGA | -0.271
72 | TATTGAGA | 0.163
73 | CCTTTAAG | -0.119
74 | ACCGGCGG | -0.137
75 | ACAGAGAA | -0.0106

Row | Sequence | PBM E-score
76 | CGGCCGAC | -0.0661
77 | CTAGGTGC | -0.287
78 | ACTGGCGG | -0.013
79 | GTAAGTCA | 0.132
80 | CGACCGGA | -0.305
81 | GTGGAAGA | -0.11
82 | CACTCATA | 0.248
83 | CGATGCCA | -0.0183
84 | AATTGTTG | 0.0795
85 | GATAAAGA | 0.0684
86 | ACAGATTG | -0.0147
87 | AAGGGCTC | -0.307
88 | GTGACTCA | 0.228
89 | ACCACCTG | -0.0871
90 | GCAGTCAC | -0.0758
91 | CAAACCGC | -0.113
92 | ACGCGCAA | 0.146
93 | ACTTCCAA | -0.0664
94 | ATGCACAT | 0.0831
95 | ATTTGTCA | 0.141
96 | ATGTAAGA | 0.339
97 | ACACGACG | 0.0371
98 | AATCAAGT | 0.0239
99 | ACTAGAAT | 0.16
100 | AACTATGT | 0.0137

Row | Sequence | PBM E-score
101 | ACCAGGGA | -0.123
102 | CCGGGGAG | -0.168
103 | AGCATTTG | -0.0653
104 | AAAGAAGG | -0.047
105 | GCGAAAGC | -0.138
106 | AGTACAGG | 0.0732
107 | ATAATGTC | 0.109
108 | CCGTAACA | 0.166
109 | CGGCTGGC | -0.28
110 | ACTTTCGG | -0.168
111 | AACGATTC | 0.0091
112 | CAAGTCGG | -0.175
113 | GTAGGCAC | -0.0825
114 | CTACACAG | -0.0882
115 | ACCAATGC | -0.108
116 | CCATCCGG | -0.172
117 | CGATATAA | 0.225
118 | CCGGAAAA | -0.049
119 | AGAATTGG | -0.1
120 | AATTTGGA | 0.0587
121 | CAAAGTAA | 0.125
122 | ACCCTTCG | -0.0964
123 | ACTTCAAA | -0.0108
124 | CTACGGTA | -0.0789
125 | AAGCTCCG | -0.163

Row | Sequence | PBM E-score
126 | AGCGAAGA | -0.101
127 | AAACACAG | -0.00842
128 | TCGTCAAA | 0.195
129 | CCCGTTAC | 0.0254
130 | GATTTTCC | -0.0413
131 | AAACTGAC | 0.181
132 | TCGGTCCA | -0.101
133 | GTACTGTA | -0.18
134 | ATGGCGAC | -0.0521
135 | ACTAATAG | 0.211
136 | ACGAACTA | 0.0908
137 | CTCTTCAA | -0.175
138 | AAACTGTC | -0.03
139 | ATCCCCTC | -0.17
140 | CGTACGAA | 0.174
141 | CTTGTTAA | 0.0436
142 | AACTGCCT | 0.129
143 | CCTGCTTA | -0.0696
144 | CTGCTGTA | -0.143
145 | GAGATGTA | 0.0936
146 | GAAGAAGA | -0.077
147 | AAACTGCT | -0.114
148 | CGGGGTGC | -0.224
149 | CCAATAGG | -0.162
150 | ATGGTCTA | -0.0477

Row | Sequence | PBM E-score
151 | CTATTAGA | -0.00752
152 | GAAACGTC | 0.286
153 | TCTGAACA | 0.0379
154 | AAATATCA | 0.139
155 | CCCGATAC | -0.262
156 | GTGCCAAA | 0.0175
157 | AAGTTACC | 0.13
158 | CTACGAAC | 0.018
159 | CCGGCCCA | -0.328
160 | ATACAGAT | 0.102
161 | ACTAGTCA | -0.147
162 | CTCGCATA | 0.111
163 | AAGGGTTG | 0.0749
164 | ATTCAAAA | 0.231
165 | TGATGCCA | 0.281
166 | CGGTTGTA | -0.185
167 | CGGCGAAC | -0.0426
168 | CCGCATTA | 0.164
169 | ATACCCTC | -0.0615
170 | AGTTATGA | 0.181
171 | ATCGAGTA | -0.105
172 | CTTTGTGC | 0.165
